In patent publication US20040081647A1 (published 2004):

Biological target: T1, recombinant human TNFα (RDI) (human, UniProt P01375 in part)
T1 construct: Bought
Test: ELISA on plates coated with TNFα at 1 µg/mL, detection with anti-myc-HRP, 1 mM benzamidine

T1 sequence (P01375 77-233 limits assumed): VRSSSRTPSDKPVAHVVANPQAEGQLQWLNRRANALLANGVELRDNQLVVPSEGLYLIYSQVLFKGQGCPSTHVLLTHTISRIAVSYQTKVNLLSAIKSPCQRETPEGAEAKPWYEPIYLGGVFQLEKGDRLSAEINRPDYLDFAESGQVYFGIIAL

B1: Trypsinogen-myc-his (human cationic trypsinogen, enzyme domain alone) (enzyme)
chain: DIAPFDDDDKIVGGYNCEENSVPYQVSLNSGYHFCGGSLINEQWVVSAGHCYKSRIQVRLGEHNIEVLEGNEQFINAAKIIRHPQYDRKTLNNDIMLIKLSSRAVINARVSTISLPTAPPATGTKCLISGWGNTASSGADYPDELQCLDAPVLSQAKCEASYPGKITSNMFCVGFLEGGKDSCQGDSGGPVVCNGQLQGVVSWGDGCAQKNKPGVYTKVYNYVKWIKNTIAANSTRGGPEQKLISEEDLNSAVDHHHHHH
notes: also called tgn
Does B1 bind?
Result: no binding (tested: conditioned medium diluted 1:10)
